According to publication PMC7819943, “Rice protein-binding microarrays: a tool to detect cis-acting elements near promoter regions in rice”:
The list shows a part of the results.

Biological target: T1, OsWOX13 (Oryza sativa, UniProt Q5QMM3 1-267)
T1 sequence: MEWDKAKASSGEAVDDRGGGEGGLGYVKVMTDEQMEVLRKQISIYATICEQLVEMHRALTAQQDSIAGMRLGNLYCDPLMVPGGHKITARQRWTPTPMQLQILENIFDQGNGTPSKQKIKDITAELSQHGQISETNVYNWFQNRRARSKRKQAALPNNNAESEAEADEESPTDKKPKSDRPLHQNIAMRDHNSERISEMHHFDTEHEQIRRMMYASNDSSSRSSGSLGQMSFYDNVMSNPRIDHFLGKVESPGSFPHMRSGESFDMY
Assay: protein-binding microarray (RPBM); PBS, 2% BSA, 51.3 ng/ul salmon testes DNA, 50 uM zinc acetate, 200 nM TF, 25 C, 1 h; high values mean tight binding
Settings: protein: recombinant; tags: N-terminal polyhistidine and DsRed monomer fusion (pET32a); label: CyDye5-dUTP incorporated in the synthesized complementary strand; 3' TTTTT single-stranded linker to array surface; dsDNA, one strand shown
In short: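 Transcription factors, each fused N-terminally to a polyhistidine tag and DsRed, were expressed in E. coli BL21-CodonPlus and purified on Ni–NTA. A custom Agilent array was made double-stranded by primer extension with Cy5-dUTP and blocked with 2% BSA. It was incubated with 200 nM protein in PBS, 2% BSA, salmon testes DNA and 50 µM zinc acetate at 25 °C for 1 h, then washed. The binding signal is per-feature fluorescence intensity (arbitrary units) read on an Axon 4000B scanner.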

Sequence | binding signal
ATCTTCATTTCTTAAATTTGTGGATAAATCAGATTTTGGACGGAGTCACCTAGTGCAG | 4150 fluorescence intensity (a.u.)
CGTGAACCGTGATTACTGCTCAGTTACCAAGGAAAACGGTCGGAGTCACCTAGTGCAG | 8990 fluorescence intensity (a.u.)
TAGAGATTGTAGTTAGACTGAGTACTCAGTTTGTGATTTTCGGAGTCACCTAGTGCAG | 4280 fluorescence intensity (a.u.)
TCAAATTGACCTAGACAATGGACCAATTGAAGGTGGTCCACGGAGTCACCTAGTGCAG | 21500 fluorescence intensity (a.u.)
ATGTCAAATGGGCCAAATTGAGTGGTTATATGGGCTGTGACGGAGTCACCTAGTGCAG | 3540 fluorescence intensity (a.u.)
CTAATATATTGACGTGTAATTCTTTTGTGTGTTTGTGAAACGGAGTCACCTAGTGCAG | 15200 fluorescence intensity (a.u.)
TATGATTTGTTTTCTTCCTTACCAAAACAAATATTGTAATCGGAGTCACCTAGTGCAG | 12900 fluorescence intensity (a.u.)
CGTTTAAATTTATTGAGCATGTAGGTTTTACCAACACAGACGGAGTCACCTAGTGCAG | 7250 fluorescence intensity (a.u.)
AATCGTTCATAATTTGATGTTAATCAGTTTTCTTATCAATCGGAGTCACCTAGTGCAG | 7670 fluorescence intensity (a.u.)
GATGATGGACGAACACCTGGCAAACAAAGGTGTTGAGCAACGGAGTCACCTAGTGCAG | 4250 fluorescence intensity (a.u.)
GATGGTGATTATGATTCACAATTTAAGTCTGAGCAAGCCTCGGAGTCACCTAGTGCAG | 19900 fluorescence intensity (a.u.)
CTAATTACTATCCATCATGTTTCTGTGGACGCGCGGCTCACGGAGTCACCTAGTGCAG | 9700 fluorescence intensity (a.u.)
TATTATACAAATTACCACATCACATTTATATTCGTACTATCGGAGTCACCTAGTGCAG | 6570 fluorescence intensity (a.u.)
ACTAAACTTTCAAATTTGGTATGAACTAAACGCACCCTTGCGGAGTCACCTAGTGCAG | 4240 fluorescence intensity (a.u.)
CCAAATTAAGCCATTAATTAATAAAACAATATCATTAGGACGGAGTCACCTAGTGCAG | 28900 fluorescence intensity (a.u.)
TTGTGTTAATTTCCTAATTAGATGCAACTTAATATCCATTCGGAGTCACCTAGTGCAG | 28100 fluorescence intensity (a.u.)
AATGAGACAACTAATTGACTAGCAAATACTCCTAGTAAAGCGGAGTCACCTAGTGCAG | 34300 fluorescence intensity (a.u.)
GTAATGATCGATGATGCCATCAATCACATGTGTGCACATGCGGAGTCACCTAGTGCAG | 11000 fluorescence intensity (a.u.)
GTAAGGTGATTTGGAAGGCGATGACGAACAATAGACACAACGGAGTCACCTAGTGCAG | 3240 fluorescence intensity (a.u.)
CAGTTAAATGAATGGAACAGTATTCTGTCACTGAAAGAGACGGAGTCACCTAGTGCAG | 6490 fluorescence intensity (a.u.)
TTAATTTATTTCCGATTAATTAAATATCTACTTTACGTTACGGAGTCACCTAGTGCAG | 10700 fluorescence intensity (a.u.)

Sequence | binding signal
ACCCGGATTAAAACGCAATCATGCATGCGCCACGATCAGACGGAGTCACCTAGTGCAG | 3890 fluorescence intensity (a.u.)
ATAATTAATTAATTAACTAACTACTTTTAGAGGAAAACTACGGAGTCACCTAGTGCAG | 32100 fluorescence intensity (a.u.)
TATTTTAATCTTATTATTGATATATGGTTTAGTTAATATGCGGAGTCACCTAGTGCAG | 4480 fluorescence intensity (a.u.)
ACCAGCATTCCTCATATTGATTGTCCACAGGGTGCTACAGCGGAGTCACCTAGTGCAG | 4680 fluorescence intensity (a.u.)
CCTGTGATGTGTGTAAAATTTGTGTGCCCGTCAAAGATGACGGAGTCACCTAGTGCAG | 5060 fluorescence intensity (a.u.)
GCTAATTAATCTATTATTGATTTAGATGTATCGACCAGTTCGGAGTCACCTAGTGCAG | 53500 fluorescence intensity (a.u.)
GCCGATATATTGACAGCAATTAAGAGTATTCATAGTGTCACGGAGTCACCTAGTGCAG | 16200 fluorescence intensity (a.u.)
GTCTTGTTCATAATAGACTGGACTCTTTGATTCCTGTGTGCGGAGTCACCTAGTGCAG | 3330 fluorescence intensity (a.u.)
AGATGTATATTCAATCAAAGGTATCCCTCTTTTGGATTATCGGAGTCACCTAGTGCAG | 4540 fluorescence intensity (a.u.)
AACAGAAATTAGTTGATGATCATGTAGAAAAGGTGAAAGCCGGAGTCACCTAGTGCAG | 3720 fluorescence intensity (a.u.)
GGGAAATTAGGGTTTCTAGAGGAGTTTACCTTCTCAATCGCGGAGTCACCTAGTGCAG | 4080 fluorescence intensity (a.u.)
GGGAAGACGAGATTGAGTGGATCAAAAGCCCTAAACCAATCGGAGTCACCTAGTGCAG | 8660 fluorescence intensity (a.u.)
TTTGATAGTTTGAACAGTGCATAAGACGGGTTTGGTTTGACGGAGTCACCTAGTGCAG | 4040 fluorescence intensity (a.u.)
GTATCTATCAAATTTTAATTGTGTGATACGACCATTAAAACGGAGTCACCTAGTGCAG | 5230 fluorescence intensity (a.u.)
CCATCATTATAATCTAAATTTGAGAGTCTGATCAAACCCACGGAGTCACCTAGTGCAG | 7840 fluorescence intensity (a.u.)
GCATAAAGAATCCAATCACGAACTCTTTGTTATTTTGAATCGGAGTCACCTAGTGCAG | 6550 fluorescence intensity (a.u.)
ATTAGATTTACTACTGATGATACTTTCTTGGGTTAAAACTCGGAGTCACCTAGTGCAG | 11700 fluorescence intensity (a.u.)
CTTAATTACGTACTCTACCACTACCCAGCTAGCTAGTTCACGGAGTCACCTAGTGCAG | 29100 fluorescence intensity (a.u.)
CAAAATAATTATGACATGAACAGTACTGAATATCAATTGTCGGAGTCACCTAGTGCAG | 30400 fluorescence intensity (a.u.)
TACCACAGATTGAATGAACATATTCAACAACAAAATCATACGGAGTCACCTAGTGCAG | 14100 fluorescence intensity (a.u.)
GGTAAGCATGTGATTTGTGGGAATGTTGGGCCCTAGCACACGGAGTCACCTAGTGCAG | 3220 fluorescence intensity (a.u.)

Sequence | binding signal
GGAAAATGCTCTAATGATTGTTATGGAGTTTATCTGTAATCGGAGTCACCTAGTGCAG | 5570 fluorescence intensity (a.u.)
TCCTGATTTTAAAATAAATAAAATAATTCCTGATACGTTTCGGAGTCACCTAGTGCAG | 32700 fluorescence intensity (a.u.)
AATCAGTTAACTCTCTGCTGATTTGCTAATAACTGAAGTACGGAGTCACCTAGTGCAG | 24500 fluorescence intensity (a.u.)
TGGAATGAATTTGATGGAAACATATCCCGACTTTGTGCAGCGGAGTCACCTAGTGCAG | 7030 fluorescence intensity (a.u.)
CCGCGCCGCAATTTGATTTGATTTCCTCCTTCTCCGCCGCCGGAGTCACCTAGTGCAG | 5840 fluorescence intensity (a.u.)
CTAAATTTTAAGTATAGCTAAATATTTACTCTACTGAGTCCGGAGTCACCTAGTGCAG | 5190 fluorescence intensity (a.u.)
TAACTATAATTATTTTCTTTGATAAACCTTTATACTCAGTCGGAGTCACCTAGTGCAG | 17700 fluorescence intensity (a.u.)
TAGTAACTAATTAGATTACGAGACATACACAAGGTTAACACGGAGTCACCTAGTGCAG | 24000 fluorescence intensity (a.u.)
TCTTTGATTACACCACAAGAGACACTCAACAAAGAAAAGTCGGAGTCACCTAGTGCAG | 4380 fluorescence intensity (a.u.)
TTCAAATTGGATCCATGCCACTGCAGCCAATTCAGAAGCACGGAGTCACCTAGTGCAG | 7110 fluorescence intensity (a.u.)
AAATTAACTCCAAATTTAAAGTTAGAAATTTAAATTTTGGCGGAGTCACCTAGTGCAG | 11400 fluorescence intensity (a.u.)
TTACAATTTAATTAAAATATATGTTGTATAATTATATTACCGGAGTCACCTAGTGCAG | 10600 fluorescence intensity (a.u.)
ACGTGCCTTGTGATTATCTTTTCTCGTACTGCGTCGTTGGCGGAGTCACCTAGTGCAG | 3250 fluorescence intensity (a.u.)
GCGATGAATCTAATCAAGATTTCCTGGAACCCTCATGTATCGGAGTCACCTAGTGCAG | 3950 fluorescence intensity (a.u.)
TCTGAATGGACACGTTTTACAATCACATCACATAGAGTAACGGAGTCACCTAGTGCAG | 3420 fluorescence intensity (a.u.)
ATTTGACACAAACTAACGGTTGGTTGAATTATTAGCACGCCGGAGTCACCTAGTGCAG | 5760 fluorescence intensity (a.u.)
CTAAATATACGCTAAACTGTTGTTTCGTTTTGCGTGCAATCGGAGTCACCTAGTGCAG | 3580 fluorescence intensity (a.u.)
ACTGATGAACTGATCCTCTCATTCAACGAAACCTGTGCAACGGAGTCACCTAGTGCAG | 6630 fluorescence intensity (a.u.)
ACTAAACTTTTAATTTTGACGTGAACTAAACACACGCTTTCGGAGTCACCTAGTGCAG | 9450 fluorescence intensity (a.u.)
CTGAATTGAGTGGAACAAGCCCGTGTACAGTACTTTGCTTCGGAGTCACCTAGTGCAG | 8670 fluorescence intensity (a.u.)
ATATGTCTAGATTCATTAACATCAATTTTAATGTGGGAAACGGAGTCACCTAGTGCAG | 3490 fluorescence intensity (a.u.)

Sequence | binding signal
ACAAAACCATTTGTGATTTTCTTTGAGTGCCCAGTTTTGTCGGAGTCACCTAGTGCAG | 3210 fluorescence intensity (a.u.)
GCTGATGAAATATCAGATGCCCTTGTCAGTGTTCAAAGAGCGGAGTCACCTAGTGCAG | 5130 fluorescence intensity (a.u.)
CGTAATTATTCTATTCTAGCCGTCTTCGTGTCTATTATATCGGAGTCACCTAGTGCAG | 26500 fluorescence intensity (a.u.)
TTGATTTGTCAACCATACATTTGTTGTTTGGCTTTTGTGACGGAGTCACCTAGTGCAG | 3830 fluorescence intensity (a.u.)
CATCAATCACCAAGGCCCTTTAAGACCAGTACCTAACCCCCGGAGTCACCTAGTGCAG | 20500 fluorescence intensity (a.u.)
ATAAACATTCTTAATTGTCTCGAGTCCAATCACACGATGGCGGAGTCACCTAGTGCAG | 19400 fluorescence intensity (a.u.)
GTGCAGGTAATTGACAGATCATTTGGTTTCGACACTGCAGCGGAGTCACCTAGTGCAG | 14100 fluorescence intensity (a.u.)
TGTAATTATTCCCTCAGGTATCAATCAATTCAGTTAACTTCGGAGTCACCTAGTGCAG | 17300 fluorescence intensity (a.u.)
CTCCTTGTTTAATTTGCACATTGTCGTCTTGCGATTACGGCGGAGTCACCTAGTGCAG | 5570 fluorescence intensity (a.u.)
ATATAATTAGACTAAGCAATGCTTTAAGATGTGAAAGGAGCGGAGTCACCTAGTGCAG | 20600 fluorescence intensity (a.u.)
CATATGCTAATTACTCCATCCATTTTATATTATATATCATCGGAGTCACCTAGTGCAG | 3600 fluorescence intensity (a.u.)
AAATTGTTTAATTGTTTATGGTATTGTAGTAGCATGTCATCGGAGTCACCTAGTGCAG | 10600 fluorescence intensity (a.u.)
TATAATTTGTATAGTTACTTGCAATTCTCATCAAATACAGCGGAGTCACCTAGTGCAG | 15600 fluorescence intensity (a.u.)
TCAGATTATTCATCAGATTATTAAAACATATTATTTGCTCCGGAGTCACCTAGTGCAG | 6140 fluorescence intensity (a.u.)
GCCCAGTCCAATCTATCATCAGATTCCTTTTATACAATATCGGAGTCACCTAGTGCAG | 6230 fluorescence intensity (a.u.)
TTATTAATAAACTAGATAGTTGTTAACCCGCGTTTTGAGTCGGAGTCACCTAGTGCAG | 3530 fluorescence intensity (a.u.)
TTTGTTTAATTATGCATGATTAGATAGCATATAGTTATTACGGAGTCACCTAGTGCAG | 22500 fluorescence intensity (a.u.)
CAATGGAAATCAACTAATCATACTGTTCATAAACAGCTTTCGGAGTCACCTAGTGCAG | 3720 fluorescence intensity (a.u.)
GGGGTCAATCATGCATAACCAGAAAGTGATGCTACTGGCTCGGAGTCACCTAGTGCAG | 23200 fluorescence intensity (a.u.)
AGGGGTTGTAATTGGTTTAGAGGTGGAGGTAGATAAGAAACGGAGTCACCTAGTGCAG | 11300 fluorescence intensity (a.u.)
TGTGACTGATAGCAAGAACATATGGCTGCTTGACAAATAACGGAGTCACCTAGTGCAG | 8880 fluorescence intensity (a.u.)
